Source: PubChem BioAssay (NCI)
Values joined by “and” are separate entries in the source; they are usually repeats but may differ in a detail not shown here. Equal entries are not always repeated.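 Values below derive from 48-hour exposures of cells grown in 96-well plates, with endpoints linearly interpolated between the two concentrations bracketing the appropriate inhibition level. Abbreviation: GI50, concentration required for 50% inhibition of growth. TGI: total growth inhibition.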

Tested on: NCI-H322M lung
Assay: DTP human tumour cell line panel, 48 h

SMILES	GI50	TGI
COc1cc(/C=C/C(=O)NC[C@]2(O)CCC3C4CCc5cc(O)ccc5C4CCC32C)ccc1O (some centres undefined)	16.2 µM	> 100 µM
CCN1/C(=C/C=C/C=C/c2sc3ccccc3[n+]2CC)Sc2ccccc21	0.445 µM	3.43 µM
O=c1c2[nH]c3ccccc3c2nc2n1CCS2	62 µM	> 100 µM
O=C(c1ccccn1)c1nc(-c2ccc(Cl)c(Cl)c2)nc2ccc(Cl)cc12	–	> 100 µM
CCOC(=O)/C(=C/c1ccccc1)C(=O)c1ccccc1	12 µM	27.7 µM
C/C=C/C(=O)[C@@H](O)C(C)C	–	> 100 µM
C=CCC(N[C@@H](CO)c1ccccc1)c1ccccn1 (some centres undefined)	> 100 µM	> 100 µM
O=[N+]([O-])c1cccc(/C=C/c2ccccn2)c1	51.2 µM	> 100 µM
COc1ccc(-c2ccc3ncc4c(c3c2)n(-c2ccc(N3CCNCC3)c(C(F)(F)F)c2)c(=O)n4C)cn1	< 0.01 µM and 0.00881 µM	0.399 µM and 0.179 µM
CC1=CSC(O)(c2ccc(Cl)cc2)c2noc(=O)n21 (centres undefined)	–	> 100 µM
CC(C)[C@H]1CO[C@@H]2O[C@H](C)CC(=O)N21	–	> 100 µM
CC(C)C(C/C=C1/CC(CO)(COC(=O)C(C)(C)C)OC1=O)C(C)C (centres undefined)	–	25.9 µM
Cc1coc2c1CC1OC1(C)CCC1OC1(C)C2 (centres undefined)	–	> 100 µM
COc1ccc(C2=CC(c3ccc(Oc4ccnc5cc(Cl)ccc45)c(OC)c3)c3c(nc(OC)[nH]c3=O)N2)cc1 (centres undefined)	> 100 µM	> 100 µM
CC(C)[C@](O)(C(=O)OCC1=CC[N+]2([O-])CC[C@@H](O)[C@@H]12)[C@H](C)O (some centres undefined)	–	> 10000 µM
O=S(=O)(O)c1cc(N=Nc2cc(S(=O)(=O)O)c3ccccc3c2O)ccc1/C=C/c1ccc(N=Nc2cc(S(=O)(=O)O)c3ccccc3c2O)cc1S(=O)(=O)O	–	> 1000 µM
[C-]#[O+].[C-]#[O+].[Ir].[O-]c1ccc2ccccc2c1N=Nc1ccccc1	–	> 86.9 µM
O=C1NC2(CCCC2)/C(=N\O)C12CCCC2	–	> 100 µM
Cc1cc(S(=O)(=O)Nc2nc3ccccc3[nH]2)c(S)cc1Cl	–	> 100 µM
COc1ccc(/C=N/NC(=O)c2ccccc2Nc2ccccc2C(=O)N/N=C/c2ccc(OC)cc2)cc1	–	> 100 µM
C/C(=C1/N=C(c2ccccc2)OC1=O)c1ccc(C)cc1	–	> 100 µM
COc1ccc(OC)c(/C=C/C(=O)C(C)(C)C)c1	–	50.6 µM
Nc1c(S(=O)(=O)O)cc(Nc2cccc(S(N)(=O)=O)c2)c2c1C(=O)c1ccccc1C2=O	–	> 100 µM
CCCCCCCC/C=C\CCCCCCCC(=O)OC[C@]1(CO)CCC(=O)O1	–	> 100 µM

SMILES	GI50	TGI
Cc1cc(C)c(S(=O)(=O)N(CCCCCCN)OCCCN)c(C)c1	–	33.7 µM
Cc1cc(O)c(C2=NN(c3ccc(S(N)(=O)=O)cc3)C(c3ccccc3O)C2)cc1Cl (centres undefined)	2.26 µM	7.11 µM
CCN=C=NCCCN(C)C	–	> 100 µM
O=C(CSc1nnc(Cc2ccccc2)o1)Nc1ccccc1Cl	–	> 100 µM
COc1ccc2c(c1)CCC(CN1CCN(CCOC(c3ccc(F)cc3)c3ccc(F)cc3)CC1)C2O (centres undefined)	–	29 µM
Fc1c[c-]c(-c2ccccn2)c(F)c1.[CH3-].[Pt+2].c1ccc([PH+](c2ccccc2)c2ccccn2)cc1	2.78 µM	> 100 µM
C[n+]1c2ccccc2c(C(=O)NC(CCCN=C(N)N)C(=O)O)c2ccccc21 (centres undefined)	–	> 100 µM
COc1ccc2c(c1)CC[C@@H]1[C@@H]2CC[C@]2(C)c3[nH]ncc3C[C@@H]12	26.4 µM	> 50 µM
N#C/C(=C\c1ccc(F)cc1)c1nc2ccccc2c(=O)[nH]1	–	> 100 µM
CC1=C(C(=O)NNC(=O)C(N)=O)CC(C(=O)NNC(=O)C(N)=O)=C(C)N1	–	> 100 µM
O=C1OCC2=C1C(c1cccc(C(F)(F)F)c1)c1cc3c(cc1N2CCO)OCO3 (centres undefined)	2.17 µM	> 50 µM
COc1cc(-c2nc(-c3nnc(-c4ccc(F)c(Cl)c4)o3)c3ccccn23)cc(OC)c1OC	5.05 µM	> 100 µM
COc1ccc(S(=O)(=O)NC2=NCCN2C(=S)SN2CCn3c2nsc3=S)cc1OC	29.2 µM	> 100 µM
CC1(C)C(=O)N(O)C(C)(C)N1N=O	–	> 10 µM
Cc1cc(Cl)ccc1NC(=O)C(=O)Cc1ccc([N+](=O)[O-])c([N+](=O)[O-])c1CC(=O)C(=O)Nc1ccc(Cl)cc1C	–	> 100 µM
COc1cc2cn3c4ccc(O)cc4nc(N)c3c2cc1OC	1.88 µM	15.5 µM
Cc1nc2c(=O)n(C)c(=O)nc-2n(CCO)c1C	–	> 100 µM
COc1ccc2c(O)c(/C=C3\N=Nc4ncccc43)oc2c1C[C@H]1CCNC[C@H]1F	1.14 µM	7.07 µM
c1ccc(CN2CCCN3CCN(CCCN(Cc4ccccc4)CC3)CC2)cc1	–	> 100 µM
CN(C)/N=C1\C=C2CC[C@H](O[Si](C)(C)C(C)(C)C)[C@@]2(C)CC1	–	43.9 µM
O=C(O)c1c([N+](=O)[O-])cc(C(F)(F)F)cc1[N+](=O)[O-]	–	> 100 µM
O=C1N(CN2CCOCC2)CN(CN2CCOCC2)C(=O)N1Cc1ccc(-c2ccc(CN3C(=O)N(CN4CCOCC4)CN(CN4CCOCC4)C3=O)cc2)cc1	–	39.7 µM
COc1cc(CNc2nc3ccccc3n2Cc2ccccc2)cc(CN2CCOCC2)c1O	–	45 µM
CS(=O)(=O)N1CC(CCl)c2ccc(NCCN)cc21 (centres undefined)	–	> 100 µM

SMILES	GI50	TGI
COc1cc(CNc2nc3cc(N)cc(N)c3nc2-c2ccccc2)cc(OC)c1OC	3.04 µM	16 µM
CN(C)Cc1cc(C(=O)/C=C/c2ccc(Br)cc2)cc(CN(C)C)c1O	–	23.8 µM
Cc1c2cnccc2c(C)c2c1c1cc(C(=O)O)ccc1n2C	0.804 µM	7.64 µM
COC1/C=C\OC2(C)Oc3c(C)c(O)c4c(O)c(c(/C=N\OCCCc5ccccc5)c(O)c4c3C2=O)NC(=O)/C(C)=C\C=C/C(C)C(O)C(C)C(O)C(C)C(OC(C)=O)C1C (centres undefined)	–	21.9 µM
Nc1ccc2ncc(Nc3ccc(F)cc3)nc2c1	–	> 100 µM
Cc1cc(Nc2cc(CN3CCOCC3)c3nc(C)c(Cc4ccc(Cl)cc4F)n3n2)n[nH]1	3.8 µM	14.7 µM
CCOC(=O)c1ccc(NC(=O)O/N=C(/Cl)C(C)C)cc1	–	30.5 µM
C[C@H](C(=O)N[C@@H](Cc1ccc(-c2ccccc2)cc1)C(=O)NC1CC(C)(C)N(C)C(C)(C)C1)c1ccc(-c2ccccc2)c(F)c1	1.48 µM	2.99 µM
CCCCCCCCCCCCC/C=C1\C[C@H](O)COC1=O	–	30.4 µM
CCC(C(=O)c1cccs1)C(O)(C(F)(F)F)C(F)(F)F (centres undefined)	–	> 100 µM
CC(C)=CCc1c(O)ccc2c1OC1c3ccc(O)c(CC=C(C)C)c3OCC21 (centres undefined)	–	26.7 µM
N.N.N.N.N.N#N.[Cl-].[Os+7]	6.29 µM	> 100 µM
Cc1nc2nn(Cc3ccccc3)cc2c(=O)o1	–	> 100 µM
Cc1cc(S(N)(=O)=O)c(S/C(=N\Nc2ccc([N+](=O)[O-])cc2)c2ccc(O)cc2)cc1Cl	2.34 µM	7.43 µM
C=C(C)C1CC2=C(O1)C(=O)c1ccccc1C2=O (centres undefined)	–	42.7 µM
c1ccc(-n2cnnc2-c2nsc3ccccc23)cc1	–	> 100 µM
OC(Cc1ccccc1)(Cc1ccccc1)c1ccccc1	–	53.1 µM
CCOC(=O)C1(Br)C(c2ccccc2)NC(=O)N(C2OC(COC(=O)c3ccccc3)C(OC(=O)c3ccccc3)C2OC(=O)c2ccccc2)C1(C)Br (centres undefined)	–	> 100 µM
Brc1cccc(Nc2ncnc3sc4c(c23)CCC(Nc2cccc(Br)c2)C4)c1 (centres undefined)	–	> 100 µM
CN1CCC(C(=O)NNc2ccccc2)CC1	–	> 100 µM
CSc1c(S(C)=O)[nH]c2cc(Br)cc(Br)c12 (centres undefined)	–	81.6 µM
O=C1N[C@H]2C(=O)c3c(Cl)sc(Cl)c3[C@H]2O1	–	25 µM
CC1C(/C=C/c2ccoc2)ON2CCCC12 (centres undefined)	–	> 100 µM
CN/C=C(/c1ccc(OC)cc1)C(O)c1ccc(OC)c(OC)c1 (centres undefined)	–	> 100 µM

SMILES	GI50	TGI
COC(=O)/C(=N\N)C(C(=O)C(=O)Nc1cccc([N+](=O)[O-])c1)c1nc2ccc(C(=O)c3ccccc3)cc2[nH]c1=O (centres undefined)	–	> 100 µM
Cc1cccc(Cl)c1NC(N)=S	–	> 100 µM
O=[N+]([O-])c1ccc(/C=N\Nc2ccc([N+](=O)[O-])cn2)cc1	–	> 100 µM
CCCCC1C(=O)N(c2ccc(S(=O)(=O)Nc3ccccn3)cc2)N(c2ccc(O)c(C(=O)O)c2)C1=O (centres undefined)	–	> 100 µM
Cc1ccc(/C=N/NS(=O)(=O)c2ccccc2)cc1	–	> 100 µM
C[C@@H]1[C@H]2[C@H](C=C3[C@@H]4CC[C@H]5Cc6nc7c(nc6C[C@]5(C)[C@H]4C[C@@H](O)[C@@]32C)C[C@@H]2CC[C@H]3C4=C[C@@H]5O[C@@]6(CC[C@](C)(CO)O6)[C@@H](C)[C@@]5(O)[C@@]4(C)[C@H](O)C[C@@H]3[C@@]2(C)C7)O[C@]12CCC(C)(C)O2	2.68 µM	29 µM
CC(=O)c1cccc(Nc2c3ccccc3nc3occc23)c1	–	> 100 µM
CCOC(=O)CCC(NC(=O)c1ccc(Nc2cnc3cc(C(F)(F)F)ccc3n2)cc1)C(=O)OCC (centres undefined)	–	> 100 µM
O=C(N[C@@H]1C=CCC[C@@H]1c1ccccc1)OCc1ccccc1	–	71 µM
CCN(CC)CCOc1ccc(N2Cc3ccccc3C2=O)cc1	–	> 10 µM
COc1cc(C(C#N)NNC(=O)Cc2ccccc2)cc(OC)c1OC (centres undefined)	–	> 100 µM
COc1ccc(-c2nn(-c3ccc(NC(=O)Nc4ccc(Cl)c(Cl)c4)cc3)cc2-c2ccncc2)cc1Cl	3.54 µM	> 100 µM
COc1ccc([C@@H]2CC(=O)NCCCNCCCCNCCCN2)cc1	–	> 100 µM
COc1ccc(C2C3=C(COC3=O)OC(C)(C)Oc3cc4c(cc32)OCO4)cc1 (centres undefined)	–	> 100 µM
CCNc1nc(N)c(C(=O)c2cccs2)s1	–	94.3 µM
C=C(C)[C@@H]1CC[C@]2(C(=O)Nc3ccccn3)CC[C@]3(C)[C@H](CC[C@@H]4[C@@]5(C)CCCNC(C)(C)[C@@H]5CC[C@]43C)[C@@H]12	2.39 µM	7.49 µM
C[n+]1c2cc(N)ccc2cc2ccc(N)cc21 (tested in a mixture with another compound)	0.563 µM	3.06 µM
COc1nc2c(cc1S(=O)(=O)c1ccccc1)CCc1c-2cnn1Cc1ccccc1	11.8 µM	> 100 µM
N#Cc1c(N)c2c(c(-c3ccccc3)c1-c1ccccc1)C(=O)N(Nc1ccccc1)C2=O	–	58 µM
COc1cc(-c2cc(-c3nc4cc(Cl)c(Cl)cc4[nH]3)[nH]n2)cc(OC)c1OC	3.29 µM	14.2 µM
Cc1ccc(Nc2[nH]c(C(=O)c3ccc(Cl)cc3)c(N)c2C(=S)Nc2ccccc2)nc1	16.3 µM	80.5 µM
Cc1ccc(S(=O)(=O)NC(=O)NC(C(=O)O)C(C)O)cc1 (centres undefined)	–	> 100 µM
C=C1CC23CCC4C(C)(C(=O)O)CCCC4(C)C2CCC1C3 (centres undefined)	–	> 100 µM
